Experimental data: the supplement of paper PMC9446081
In all, about 39,000 compounds went through this assay and about 220 (0.56%) showed activity. The list shows a part of the results.

System: Escherichia coli K-12 BW25113
Experiment: relative growth (OD600 normalised to plate interquartile mean) (fraction); higher = less growth inhibition, active = 0.2 or less
Settings: 50 µM; LB; incubation time: overnight (16-24 h)
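Also: static incubation at 37 °C against the wild-type strain, values averaged over two biological replicates.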

| SMILES | relative growth |
| --- | --- |
| COc1ccc(CNC(=O)C[C@@H]2C[C@@H]3c4cc(NC(=O)NC5CCCC5)ccc4O[C@@H]3[C@H](CO)O2)cc1 | inactive: 0.983 |
| Cc1ccc(S(=O)(=O)N(C)C[C@H]2Oc3ncc(C#CC4(O)CCCC4)cc3C(=O)N([C@H](C)CO)C[C@H]2C)cc1 | inactive: 0.993 |
| C[C@H](CO)N1C[C@H](C)[C@@H](CN(C)C(=O)Nc2ccc(C(F)(F)F)cc2)Oc2ccc(NC(=O)Nc3ccccc3)cc2C1=O | inactive: 1.02 |
| C[C@H](CO)N1C[C@H](C)[C@@H](CN(C)C(=O)CN(C)C)Oc2cc(-c3cncnc3)ccc2S1(=O)=O | inactive: 0.986 |
| CCNC(=O)[C@@H]1[C@@H](CO)[C@@H]2Cn3c(ccc(-c4cccc(C(=O)N(C)C)c4)c3=O)[C@H]1N2 | inactive: 1.02 |
| C[C@@H]1CN([C@@H](C)CO)C(=O)Cc2cc(NC(=O)CCN3CCOCC3)ccc2O[C@@H]1CN(C)CC1CCCCC1 | inactive: 1.02 |
| O=C(NO)c1cccc(C(=O)N/N=C/[C@H](O)[C@@H](O)[C@H](O)CO)c1 | inactive: 0.986 |
| C[C@H](CO)N1C[C@H](C)[C@@H](CN(C)Cc2ccc(-c3ccccc3)cc2)Oc2ccc(NC(=O)Nc3ccccc3)cc2CC1=O | inactive: 1.04 |
| C[C@H](CO)N1C[C@H](C)[C@H](CN(C)Cc2ccc(-c3ccccc3)cc2)Oc2c(NC(=O)NC3CCCCC3)cccc2C1=O | inactive: 0.984 |
| C[C@@H]1CN([C@H](C)CO)C(=O)c2cc(NS(=O)(=O)c3cccs3)ccc2O[C@H]1CN(C)S(=O)(=O)c1cn(C)cn1 | inactive: 0.988 |
| Cc1cc(C(=O)Nc2cccc3c2O[C@H](CN(C)C(=O)NC2CCCCC2)[C@@H](C)CN([C@H](C)CO)C3=O)n(C)n1 | inactive: 1.01 |
| C[C@H](CO)N1C[C@H](C)[C@H](CN(C)C(=O)Cc2ccncc2)Oc2cc(C#CC3CCCCC3)ccc2S1(=O)=O | inactive: 0.989 |
| C[C@H](CO)N1C[C@H](C)[C@H](CN(C)S(=O)(=O)c2ccc(Cl)cc2)OCc2cn(nn2)CCCC1=O | inactive: 1.02 |
| CO[C@H]1O[C@H](CO)[C@@H](OC(=O)Nc2ccc3c(c2)OCO3)[C@@H]2OC(=O)[C@H](Cc3cccc(Br)c3)C/C=C/C[C@@H](Cc3cccc(Br)c3)C(=O)O[C@@H]12 | inactive: 1.04 |
| CCS(=O)(=O)N1C[C@@H](C)[C@H](OC)CN(C)C(=O)c2cc(NS(=O)(=O)c3ccccc3C)ccc2OC[C@H]1C | inactive: 1.03 |
| C[C@@H]1CN([C@@H](C)CO)S(=O)(=O)c2ccc(C#C[C@@H](C)O)cc2O[C@H]1CN(C)C | inactive: 0.982 |
| C[C@H]1CN([C@@H](C)CO)C(=O)CCCn2nncc2CO[C@@H]1CN(C)S(C)(=O)=O | inactive: 1.01 |
| CN1CCN(c2c(F)cc3c(=O)c(C(=O)O)cn4c3c2OCN4C)CC1 | active: 0.0475 |
| C[C@@H]1CN([C@H](C)CO)C(=O)CCCn2nncc2CO[C@H]1CN(C)C(=O)c1cc(-c2ccccc2)on1 | inactive: 0.999 |
| C[C@@H]1CCCCO[C@H](CN(C)S(=O)(=O)c2cccs2)[C@@H](C)CN([C@H](C)CO)C(=O)c2cc(NC(=O)Nc3ccc(F)cc3)ccc2O1 | inactive: 0.991 |
| CN(C)CCCNC(=O)C[C@@H]1CC[C@@H]2[C@@H](COc3ccc(NS(C)(=O)=O)cc3C(=O)N2C)O1 | inactive: 0.993 |
| COc1ccc(NC(=O)Nc2ccc3c(c2)C(=O)N([C@H](C)CO)C[C@@H](C)[C@H](CN(C)Cc2ccc(Oc4ccccc4)cc2)O3)cc1 | inactive: 1.02 |

| SMILES | relative growth |
| --- | --- |
| C[C@@H]1CN([C@H](C)CO)C(=O)c2cc(NC(=O)NC3CCCCC3)ccc2O[C@@H](C)CCCCO[C@H]1CN(C)C(=O)NC1CCCCC1 | inactive: 0.993 |
| Cc1noc(C)c1S(=O)(=O)N(C)C[C@@H]1Oc2ccc(NS(=O)(=O)c3ccc(Cl)cc3)cc2CC(=O)N([C@@H](C)CO)C[C@@H]1C | inactive: 1.01 |
| CNc1nc(SCC(N)=O)nc(N2CCOCC2)n1 | inactive: 1.01 |
| CC(=C\C(=O)O)/C=C(\C)C[C@H](C)CCCC[C@H](OC(=O)[C@H](CO)[C@H](O)CCCC[C@H](C)C/C(C)=C/C(C)=C/C(=O)O)[C@@H](CO)C(=O)O | inactive: 1.01 |
| C[C@@H]1CN([C@H](C)CO)C(=O)c2cc(NC(=O)Nc3ccc(F)cc3)ccc2O[C@@H]1CN(C)Cc1ccc(-c2ccccc2)cc1 | inactive: 1.02 |
| Cc1ccc(S(=O)(=O)Nc2ccc3c(c2)C(=O)N([C@@H](C)CO)C[C@H](C)[C@@H](CN(C)S(=O)(=O)c2ccc(F)cc2)OCCCC[C@@H](C)O3)cc1 | inactive: 1.04 |
| NC(=O)c1cc(Cl)ccn1 | inactive: 0.991 |
| C[C@H]1CN([C@@H](C)CO)C(=O)c2cc(NC(=O)CCN3CCOCC3)ccc2O[C@@H]1CN(C)Cc1ccc2c(c1)OCO2 | inactive: 0.998 |
| COc1c(N2CC3CCCNC3C2)c(F)cc2c(=O)c(C(=O)O)cn(C3CC3)c12.Cl (centres undefined) | active: 0.0459 |
| CC(C)(C)CC(C)(C)c1ccc(O)c(Cc2ccc(Cl)cc2Cl)c1 | inactive: 0.774 |
| CCc1cccc(C)c1NC(C)=O | inactive: 0.979 |
| CN(C)CC#Cc1ccc([C@@H]2[C@@H](CO)N3C(=O)CN(C(=O)CN(C)C)C[C@@H]23)cc1 | inactive: 0.997 |
| CC(C)C[C@@H](N)C(=O)NC1CCN(C(=O)C2CCCC2)CC1 | inactive: 0.999 |
| NC(C(=O)O)C(O)C(O)C(O)CO (centres undefined) | inactive: 1 |
| Cc1ccc(S(=O)(=O)Nc2ccc3c(c2)C(=O)N([C@@H](C)CO)C[C@H](C)[C@@H](CN(C)S(=O)(=O)c2cccs2)O3)cc1 | inactive: 1.01 |
| C[C@@H]1CN([C@H](C)CO)C(=O)c2cc(NS(=O)(=O)c3ccccc3)ccc2O[C@@H](C)CCCCO[C@@H]1CN(C)Cc1ccc(C(=O)O)cc1 | inactive: 0.995 |
| CCC(=O)N[C@H]1C=C[C@H](CC(=O)OC)O[C@@H]1CO | inactive: 0.971 |
| C[C@H](CO)N1C[C@H](C)[C@@H](CN(C)S(=O)(=O)c2ccccc2)Oc2ccc(NC(=O)c3ccncc3)cc2CC1=O | inactive: 1.01 |
| C[C@H](CO)N1C[C@H](C)[C@H](CN(C)S(=O)(=O)c2ccc(F)cc2)Oc2cc(Br)ccc2S1(=O)=O | inactive: 1.01 |
| CCS(=O)(=O)N1CC[C@]2(CC1)CN([C@H](CO)c1c2c2ccc(cc2n1C)OC)C(=O)CN1CCOCC1 | inactive: 0.983 |
| O=C1/C(=C/c2cn(-c3ccccc3)nc2-c2ccc(OCc3ccccc3)cc2)SC(=S)N1CCS(=O)(=O)O | inactive: 0.873 |
| Cc1cc(N)n2nc(C)cc2n1 | inactive: 1 |

| SMILES | relative growth |
| --- | --- |
| COc1ccc(S(=O)(=O)N(C)C[C@@H]2Oc3ccc(NS(=O)(=O)c4cccs4)cc3CC(=O)N([C@H](C)CO)C[C@@H]2C)cc1 | inactive: 1.01 |
| COc1ccc(S(=O)(=O)Nc2ccc3c(c2)C(=O)N([C@@H](C)CO)C[C@@H](C)[C@@H](CN(C)S(=O)(=O)c2c(C)noc2C)O3)cc1 | inactive: 1.01 |
| C[C@H](CO)N1C[C@H](C)[C@@H](CN(C)C(=O)Nc2cccc(C(F)(F)F)c2)OCc2cn(nn2)CCCC1=O | inactive: 0.971 |
| C[C@H](CO)N1C[C@H](C)[C@H](CN(C)Cc2cncnc2)Oc2cc(C#CC3CCCC3)ccc2S1(=O)=O | inactive: 1.01 |
| COc1ccc(S(=O)(=O)Nc2ccc3c(c2)C(=O)N([C@H](C)CO)C[C@H](C)[C@H](CN(C)CC2CCCCC2)OCCCC[C@@H](C)O3)cc1 | inactive: 1.01 |
| Clc1cccc(Cl)c1CSc1cccs1 | inactive: 0.987 |
| COc1ccc(S(=O)(=O)Nc2ccc3c(c2)CC(=O)N([C@@H](C)CO)C[C@@H](C)[C@H](CN(C)C)O3)cc1 | inactive: 1.01 |
| C[C@H](NC(=O)C[C@@H]1C[C@H]2c3cc(NC(=O)Nc4ccc(C(F)(F)F)cc4)ccc3O[C@H]2[C@H](CO)O1)c1ccccc1 | inactive: 0.995 |
| O=C(C[C@H]1C=C[C@H](NC(=O)c2cccnc2)[C@H](CO)O1)NCc1ccncn1 | inactive: 0.999 |
| COc1ccc(NC(=O)Nc2ccc3c(c2)C(=O)N([C@@H](C)CO)C[C@@H](C)[C@@H](CN(C)CC2CCCCC2)O3)cc1 | inactive: 0.986 |
| C[C@H](CO)N1C[C@H](C)[C@@H](CN(C)C(=O)Nc2ccc3c(c2)OCO3)Oc2c(NC(=O)Nc3ccc(C(F)(F)F)cc3)cccc2C1=O | inactive: 0.912 |
| COc1ccc([C@@H]2CC=CC[C@@H](C)Oc3ccccc3C(=O)N(C)[C@H](Cc3ccccc3)C(=O)N2)c(OC)c1 | inactive: 0.995 |
| O=C(O)c1cccnc1C(=O)O | inactive: 0.992 |
| O=C1c2ccncc2C(=O)N1CN1CCOCC1 | inactive: 1 |
| CCCNC(=O)N(C)C[C@@H]1Oc2cc(C#Cc3cccc(F)c3)ccc2S(=O)(=O)N([C@H](C)CO)C[C@H]1C | inactive: 1 |
| COc1ccc(NC(=O)N(C)C[C@H]2Oc3c(NS(=O)(=O)c4cn(C)cn4)cccc3C(=O)N([C@H](C)CO)C[C@@H]2C)cc1 | inactive: 1.01 |
| COC(=O)[C@H](Cc1c[nH]c2ccccc12)NC(=O)[C@H](CCCCCC(=O)[C@@H](C)O)NC(=O)OC(C)(C)C | inactive: 0.983 |
| CN(C)C(=O)C1CCNCC1 | inactive: 1 |
| C[C@H]1CN([C@@H](C)CO)C(=O)c2cccc(NC(=O)C3CCOCC3)c2O[C@H]1CN(C)Cc1ccc(-c2ccccc2)cc1 | inactive: 1.01 |
| Cc1ccc(S(=O)(=O)N(C)C[C@H]2OCCCC[C@@H](C)Oc3ccc(NS(=O)(=O)c4ccc(Cl)cc4)cc3C(=O)N([C@H](C)CO)C[C@H]2C)cc1 | inactive: 1.04 |
